Laboratory results reported in the supplement of paper PMC10126150.
Values marked as one replicate rest on one cluster of the flow cell; about a third of the high ones do not repeat.

test system: ATP; test: switch fluorescence ratio, 500 uM ATP over buffer (Cy3 cluster intensity, sum of 5 cycles each) (fold (ratio)); higher = stronger signal-on switching upon ATP binding; sequences stand for … in TCGTCGGCAGCGTCAGATGTGTATAAGAGACAGTTTTTTTTTTTTTTTTTTTTTTTTT…TC; settings: aptamer strand: ATP DNA aptamer (quencher-CACCTGGGGGAGTATTGCGGAGGAAGG + anchor), 100 nM annealed; ATP concentration: 500 uM; one replicate
How it was run: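 Clusters with intensities outside 100-1000 RFU were excluded. The remaining Cy3-labelled switching-strand clusters on a modified Illumina MiSeq flow-cell had been annealed to 100 nM quencher-labelled ATP aptamer and imaged in selection buffer, then after 15 min with 500 uM ATP at 22 °C, for five cycles separated by NaOH stripping and re-annealing. The fluorescence ratio, averaged per switch-domain sequence, is each cluster's summed target-cycle Cy3 intensity over its summed buffer-cycle Cy3 intensity.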
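Note: ATP exposure 15 min at 22 °C before imaging.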

| Sequence | switch fluorescence ratio |
| --- | --- |
| TTGCCTGAAT | 0.978 |
| TTGCCTTGGG | 0.988 |
| TTGCGAGTA | 0.972 |
| TTGCGCTCTT | 0.977 |
| TTGCGGATGT | 0.967 |
| TTGCGGGCGC | 0.999 |
| TTGCGGTCGG | 0.951 |
| TTGCGGTCTG | 0.992 |
| TTGCGTAAA | 0.96 |
| TTGCGTAAAT | 1.1 |
| TTGCGTCATG | 1 |
| TTGCGTCCC | 1.03 |
| TTGCTCCGAG | 1.26 |
| TTGCTCGATG | 0.97 |
| TTGCTCGGCG | 0.968 |
| TTGCTCGTAT | 0.969 |
| TTGCTGGGAG | 0.977 |
| TTGCTTACT | 1.14 |
| TTGCTTTGCG | 1.02 |
| TTGGAAGCAA | 1.01 |
| TTGGAGGAGC | 1.05 |
| TTGGAGGGAC | 0.962 |
| TTGGATAGCC | 0.983 |
| TTGGATCACA | 0.976 |
| TTGGATCGTA | 1.01 |
| TTGGATTATA | 1.01 |

| Sequence | switch fluorescence ratio |
| --- | --- |
| TTGGATTTGA | 1 |
| TTGGCACACG | 0.968 |
| TTGGCACGTT | 0.996 |
| TTGGCGCGGA | 1 |
| TTGGCGCTCA | 0.986 |
| TTGGCGGGGG | 0.981 |
| TTGGCTAATG | 1.01 |
| TTGGCTGTTG | 0.992 |
| TTGGGAACGA | 0.982 |
| TTGGGAAGTC | 1 |
| TTGGGAATGC | 1.2 |
| TTGGGAATTA | 0.98 |
| TTGGGACCCT | 0.989 |
| TTGGGAGTGC | 0.988 |
| TTGGGATTAT | 0.979 |
| TTGGGCAAGC | 1.11 |
| TTGGGCCACT | 0.955 |
| TTGGGCCGTG | 1.01 |
| TTGGGCGTCA | 1.02 |
| TTGGGCTTCA | 1.01 |
| TTGGGTAGCG | 1.06 |
| TTGGGTCTGA | 0.994 |
| TTGGGTGGG | 0.975 |
| TTGGTACTAA | 1.04 |
| TTGGTCTGCT | 0.954 |
| TTGGTCTTAT | 0.984 |

| Sequence | switch fluorescence ratio |
| --- | --- |
| TTGGTGAATG | 1.02 |
| TTGGTGCAG | 1.01 |
| TTGGTGCT | 1.03 |
| TTGGTGGATT | 0.979 |
| TTGGTGTACG | 0.932 |
| TTGGTTAACG | 0.962 |
| TTGGTTAAGC | 1.01 |
| TTGGTTAGCA | 1.01 |
| TTGGTTCGAA | 1.06 |
| TTGGTTCTAG | 1.03 |
| TTGGTTGACT | 0.937 |
| TTGGTTGTTG | 1 |
| TTGGTTTGAA | 0.994 |
| TTGTAAGGGA | 1.01 |
| TTGTACCGG | 0.964 |
| TTGTAGAGTC | 1.05 |
| TTGTAGCGCA | 1.03 |
| TTGTAGCTAT | 3.28 |
| TTGTAGGGTG | 1.01 |
| TTGTAGTGGC | 1.06 |
| TTGTAGTTGA | 0.99 |
| TTGTATCCGT | 1.02 |
| TTGTCATACG | 0.988 |
| TTGTCATCCG | 1.05 |
| TTGTCCTGGA | 1.04 |
| TTGTCGCCTT | 1.01 |

| Sequence | switch fluorescence ratio |
| --- | --- |
| TTGTCGTGCG | 0.993 |
| TTGTCTCATC | 0.972 |
| TTGTCTGTCA | 1.02 |
| TTGTCTTCGT | 0.967 |
| TTGTGAAGTT | 0.964 |
| TTGTGAGGTG | 1.05 |
| TTGTGATGCA | 1.04 |
| TTGTGATGTT | 1.03 |
| TTGTGCAGTC | 1.46 |
| TTGTGGGACG | 1 |
| TTGTGTCTGT | 1.02 |
| TTGTGTTTGC | 1.03 |
| TTGTTACCAT | 1.04 |
| TTGTTCTGTT | 0.97 |
| TTGTTGATGA | 0.995 |
| TTGTTTCGGA | 1.02 |
| TTGTTTCTGT | 0.987 |
| TTGTTTTAAG | 1.04 |
| TTTAAAGAGC | 0.956 |
| TTTAAATCGC | 1.01 |
| TTTAACCCGG | 1.01 |
| TTTAACGCGT | 0.975 |
| TTTAAGAAAA | 1.03 |
| TTTAAGCCTG | 0.965 |
| TTTAATCCTA | 0.978 |
| TTTAATTACG | 1.11 |

| Sequence | switch fluorescence ratio |
| --- | --- |
| TTTACATGGT | 0.97 |
| TTTACCTGAT | 1.06 |
| TTTACCTGTG | 1.02 |
| TTTACGACGT | 1.07 |
| TTTACGTCAC | 1.86 |
| TTTACTGCGG | 1 |
| TTTACTGGGA | 1.01 |
| TTTACTGTAT | 1.2 |
| TTTACTTAAA | 0.991 |
| TTTACTTGAG | 0.975 |
| TTTAGACGG | 1.02 |
| TTTAGAGCCG | 0.963 |
| TTTAGCACTC | 1.14 |
| TTTAGCAGTG | 0.992 |
| TTTAGCGTCG | 0.983 |
| TTTAGTGAGT | 0.995 |
| TTTATACAAG | 0.973 |
| TTTATATAG | 0.997 |
| TTTATATAGG | 1.12 |
| TTTATATCGA | 1.01 |
| TTTATCAAGG | 0.985 |
| TTTATCCGGA | 1.01 |
| TTTATCTACT | 1 |
| TTTATGACGC | 1.01 |
| TTTATGTTG | 1.02 |
| TTTATTAATA | 0.983 |

| Sequence | switch fluorescence ratio |
| --- | --- |
| TTTATTCT | 1.03 |
| TTTATTGATT | 1.01 |
| TTTATTTCG | 1.01 |
| TTTCAAGTT | 1.01 |
| TTTCAATATG | 0.987 |
| TTTCAATGGC | 1.13 |
| TTTCAGAAAC | 1.2 |
| TTTCAGAGTG | 1.04 |
| TTTCAGGAAG | 0.971 |
| TTTCATAAGG | 0.961 |
| TTTCATATTA | 1.02 |
| TTTCATGA | 0.993 |
| TTTCATGAAA | 0.975 |
| TTTCCACGGC | 1.07 |
| TTTCCAGGTA | 1.09 |
| TTTCCATA | 0.998 |
| TTTCCATGGG | 1.02 |
| TTTCCCCCGT | 1.05 |
| TTTCCGGC | 1.07 |
| TTTCCTGCGT | 1.19 |
| TTTCGAAAGT | 1.01 |
| TTTCGACGCG | 0.996 |
| TTTCGCCGG | 1.1 |
| TTTCGCCGGG | 1.02 |
| TTTCGCTGAC | 2.5 |
| TTTCGTCT | 1.09 |

| Sequence | switch fluorescence ratio |
| --- | --- |
| TTTCTAAAGC | 0.989 |
| TTTCTAAGCG | 1.01 |
| TTTCTAAGG | 1.02 |
| TTTCTATCCC | 1.03 |
| TTTCTATTGA | 1.02 |
| TTTCTCCAAA | 1.12 |
| TTTCTCGGTT | 0.94 |
| TTTGAATAAA | 1 |
| TTTGACGGAC | 1.17 |
| TTTGAGAAAC | 0.968 |
| TTTGAGTGCA | 0.974 |
| TTTGATCGGT | 0.947 |
| TTTGATGTGG | 1.01 |
| TTTGCACGGC | 1 |
| TTTGCATTCC | 1.51 |
| TTTGCCAGTG | 1.02 |
| TTTGCCTTCA | 1.42 |
| TTTGCGCATG | 1.04 |
| TTTGCTGTGT | 1.03 |
| TTTGCTTGTG | 0.994 |
| TTTGGACCCC | 1.04 |
| TTTGGCCATT | 1.01 |
| TTTGGCGCTT | 1.04 |
| TTTGGGAACG | 0.98 |
| TTTGGGCTCG | 1.03 |
| TTTGGGGCAA | 1.16 |

| Sequence | switch fluorescence ratio |
| --- | --- |
| TTTGGGGCCA | 0.995 |
| TTTGGTCGAT | 1.04 |
| TTTGTAATAG | 1.03 |
| TTTGTAGATA | 0.983 |
| TTTGTAGCAA | 2.27 |
| TTTGTAGT | 1.14 |
| TTTGTCAGGA | 0.978 |
| TTTGTCATGC | 1.26 |
| TTTGTGATGA | 1.03 |
| TTTGTGCTCG | 1.03 |
| TTTGTGTTAT | 0.964 |
| TTTGTGTTGC | 0.957 |
| TTTGTTGTC | 0.941 |
| TTTTAAATTA | 0.991 |
| TTTTAACACC | 1.02 |
| TTTTAAGGT | 0.947 |
| TTTTACATGG | 0.956 |
| TTTTACGGCG | 1.05 |
| TTTTACTAGC | 1.04 |
